Assay results: the supplement of paper PMC11417369
The other results are listed elsewhere or left out.

test system: PfHDP1 homeodomain (GST-tagged); assay: gcPBM binding intensity (ln(normalized median fluorescence intensity)); higher = stronger DNA binding
Procedure, shortened: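 Probes on an Agilent 4 × 180k array were primer-extended, double-stranded and 36 bp long, taken from intergenic genomic regions, with negative controls added. GST-tagged P. falciparum DNA-binding domains from E. coli, about 25 μg on average, were applied to the array for 1 h in 1× PBS containing 1% milk, 0.2 mg/ml BSA, 0.5% salmon testes DNA and 0.03% Triton X-100. Binding intensity, obtained after Alexa488 anti-GST antibody detection and a 488 nm scan, is the highest Masliner-normalised natural-log median intensity across replicate spots of either probe orientation.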

Sequence	gcPBM binding intensity (ln)
AAAGAATTATATAAGGTGCACGAATGTTTCTTTAAT	9.15
AAAAAAAAAAAAAAAAAAAAAATACATATATATATA [CACACA_negctrl_site290]	8.87
ATATGTGTGTGTATTTGTACCCAATTTTTATATATA [XGTACX_site4948]	7.15
AGATATGTTTTTAATTGTACATAAATACACAAATAT [XGTACX_site5981]	6.45
TGTAATAAATAGTACACACACACATATATATATATT [CACACA_site1388]	6.86
TAAAGTTAAAAATTATGTACATATATATTGTATATT [XGTACX_site5528]	6.29
GATAAAATAGGACCATATTCTTTAAAACGATAAAAT [XGTACX_negctrl_site405]	6.42
ATATATATATATTTATGTACATATACATAATGTATA [XGTACX_site6387]	8.67
TTATTTTATATATCACGTACATAGTTGTCTTCTTTT [XGTACX_site2906]	6.29
TAAGAAGTATTTTCCTGTACATATTTTATATGTATG [XGTACX_site4658]	6.03
AAAATATAAAATAATGCACACATAAACAAAAAATCA [CACACA_site8382]	10.5
TACAAGTATAAATAAGCACACATGTGGATATGTACA [CACACA_site4229]	6.67
ATGAATCCTTAATATGAACACACAAATATATTACAC [CACACA_site7943]	6.7
TCCTTATTTATATAATGTACTTTTTTTTTTCATTTT [XGTACX_site4275]	6.51
TTATTTCAAAGTAAATCAGTAAATATTTGTTTTCTT [CACACA_negctrl_site1572]	6.1
TTTTTTATTTATCCTATATATTACTAAATGAAGAAC [GTGCAC_negctrl_site333]	6.35
AATATATAGGTATTTACACACAATGTGAGATCTATA [CACACA_site3407]	6.24
ATTTATGAAAAGTAAAGTACACACAGGAAAAAAAAA [XGTACX_site3564]	6.62
GTCAACTTGTGATAAGTGCATATATATAATAAAATG	8.35
CGAAATAAATCTTATGCACACAAATAATTAATTAAA [CACACA_site8491]	10.5
AAAAAAATATAATATTTGAATAAATATAATAATATG [XGTACX_negctrl_site477]	6.19
ATTTAAATAATATGTACACACATTTAAAAAATTATA [CACACA_site2816]	6.49
CCAATGAGGATATATACACACATACATTAAAAAAAT [CACACA_site5090]	6.73

Sequence	gcPBM binding intensity (ln)
ATATATATGTATGTATGTACTTATTTATTTATTTAT [XGTACX_site7740]	6.21
TAAGAAAAAGGCACACGTACATAATTCAAAATAAAT [XGTACX_site982]	6.57
TTTTTTTTCACACATTGTACTTTTTTATAAAATATA [XGTACX_site4351]	6.98
TATACATATTTACAAGTGCATAATATTTTACAAAAA	8.59
CACTCTTAAAATAAGGTGCACTATATAACGTGATTA [GTGCAC_site9422]	9.47
ATAAAATAAATAAATATAAATATATATATATATATA [TGCATGCA_negctrl_site358]	9.14
TAATTATAATAAAAAGGTACAGAAAAGTTATACTCA [XGTACX_site6111]	6.26
AATTATCAAAGTCTATACATACATACATACATACAT [GTGCAC_negctrl_site243]	6.96
GTTATAACTCAAATATGTACATATTATAAAACATAT [XGTACX_site6693]	6.82
AAAAAAAAAAAAAAAGGTACACAAATACGTCCTGCA [XGTACX_site3354]	6.49
TTATAGAACTATATTGCACACATAATATATATATAT [CACACA_site9042]	10.1
TATAAAAATAAGCACACACACAAATATATATTTATT [CACACA_site922]	6.77
TTACTACTATATTATACACACATATATTTATTTATA [CACACA_site7274]	7.01
CCGTAGTTTTAAAATAGTACTTTTATGGTTAATAAA [XGTACX_site3162]	6.29
TTTTTTATTTTTTTATTGTTTTATTGTTTCATTGTT [XGTACX_negctrl_site128]	6.65
TATAAATAATAAAGATGTACTTTTTATGATTCCTAC [XGTACX_site7003]	6.36
TATAAAAAGCAAAACAAAAAAACAAATTGAAAAATT [TGCATGCA_negctrl_site158]	6.38
AAAAGAAAAGAGAGGAGTACAAAATATAATTATCTA [XGTACX_site5172]	6.87
CATATTGGTATGCTCATGCACTTTTATTTTGTTATT [GTGCAC_site9553]	9.04
TGTATATATTAATGTACACACATGCGTATGTTCGTT [CACACA_site3583]	6.65
AAAAAAAAAAAAAGAACACACACAGTGCACATTCGG [CACACA_site8163]	10.3
AATTAGATACTAACAAGTACATATATATATATATAT [XGTACX_site2252]	9.18
TTGTAATTATTAAACACACACAAAATATCTAGAATA [CACACA_site7231]	6.99

Sequence	gcPBM binding intensity (ln)
ATTTAGATTAACACTTGTACATAATACATACAAATA [XGTACX_site4147]	6.43
ATTTTTTTTTGTGTATATAAATAAATAAATATATAT [GTGCAC_negctrl_site603]	6.47
TTTCCCTAATGAAAGTGTACCTGTGAGAAAAAAAAG [XGTACX_site194]	6.58
AAAAAAAAAAAAAGCACACACACATATGTGTATATA [CACACA_site8225]	6.86
CCCTGCCTCTCTTTGGTGCGTTGTAACCCTCGAGGA	6.77
TAAATTGTATATGAGACTATACTATAAAAGTATGAA [XGTACX_negctrl_site22]	6.19
TGTCTGTGCGGGTGTACACATTTCATATTACCCAAT [CACACA_site5593]	7.44
TAATTTATAAAAAATTGTACATTAAACATATATATA [XGTACX_site5164]	6.57
TGCTCCTATTATATAGTGCATTTATTTTAATAAACG	8.61
AACCTTACACAAGGGGTGCAATATTATTTCGATAAA [GTGCAC_site9600]	9.2
TCTTTTCGTTCATGCTGTACTTAATTGCTCTAATTT [XGTACX_site4816]	7.18
CAATTTATTTTTATTACACACTATCCAAATAATTTC [CACACA_site2956]	6.47
TATATAATAATTTAGAGTACTGATAAAATATTCCAT [XGTACX_site6200]	6.23
AACATACGACAATACGCACACATATATGTACATATT [CACACA_site1917]	7.2
TTAAACAATTTAGACATACACACAAAAATAATATTA [CACACA_site385]	6.9
AGCATACATATTTTTTGTACATATATATATATATAT [XGTACX_site8536]	9.18
CCATAAAATCATAAGCGTACTTAATATATTTTACTT [XGTACX_site559]	6.42
TAATTTTTCCTTTTTGCACACATTAACGTCGACGAA [CACACA_site4025]	10.8
TACATATTTATATACACACACACCGTCCGTGTTAAA [CACACA_site7413]	6.93
CTAAAAATCTTTTGTTGTACTTTTAGATAATCAGGA [XGTACX_site3968]	6.05
AAAGGGATGTTCATTCTTTTTTTTTTTTTTGTATAT [CACACA_negctrl_site511]	5.96
AAGTAAAAAAATAGCACACACACAAAAACACAGACA [CACACA_site4839]	7.59
TTTCCCTACCAAAAATGTACTTATAAGCGTTTTTAT [XGTACX_site739]	6.5

Sequence	gcPBM binding intensity (ln)
AAAAAAAAAAAACACACACACACACTAATACATACA [CACACA_site8135]	6.74
TTTTTAAATTATTGCACACAAAAATGAAAGGAAAAA [CACACA_site1455]	9.76
ATTGGGTACAAATACACACACATATAAATATTAATA [CACACA_site7173]	6.68
TATTATTTTATGAATACACACATATACGAAAATATT [CACACA_site964]	6.47
AATTATTGTATGCTATACGTTCCCCTCTAATTTATC [CACACA_negctrl_site1052]	6.52
TATTTTTATATAATGTGTACTTATACCTTATTTTTT [XGTACX_site1658]	6.49
TATATTTTTTTTGTGCGTACATACCATTTTAATAAT [XGTACX_site2751]	7.68
CACAAACAAAAACACACACACACACCCACAAAAATG [CACACA_site2429]	6.89
TACCTTTTTTGTTTTATGCACACCATATAACCAAGG [CACACA_site30]	9.98
TAAAAAAAAAAAAAAGCATGCTATATTATATTACAC [TGCATGCA_site241]	6.31
TTTTTTTTTCCGTGTTGTACAAAAAAAAAGATTTTG [XGTACX_site3925]	6.21
TATAACTATTCACAGACATGCACATAATAACAATAA [TGCATGCA_site207]	7.99
AAGAAATATTTATACACACACACAAACATATAAATA [CACACA_site6981]	7.21
ATATATAAATTTTAGTGTACATTAATTTTTTTTTTT [XGTACX_site7782]	6.42
AAAAAAAAAAAAAAAACACACAATAAAGTAAAATTT [CACACA_site135]	6.56
TAAATATATTAAGCTTGTACATGAAAAAAAAAAAAA [XGTACX_site3264]	6.55
AGTCTGAATAAAATTACACACATATACATATATATA [CACACA_site1780]	6.62
TATGTATATAAATTAACACACATATGTGGTTAATAG [CACACA_site3143]	6.31
CACTAAAATAAACACACACACACACCGATATATATA [CACACA_site9379]	6.97
TTAATTTTATTTTTTTGTACACATAAATATTATAAA [XGTACX_site4680]	6.62
